Measurements from the GPR68 mutational scans of Howard et al. (2025).
Scores whose standard error is large were omitted. Two further conditions of the source, in which the scores hardly spread, are not listed. Read del as a deletion of the residues named and ins as an insertion between two positions. For some of these results: The concentration of ogerin is not given here.

B1: GPR68, Q15743 (parent)
chain: MGNITADNSSMSCTIDHTIHQTLAPVVYVTVLVVGFPANCLSLYFGYLQIKARNELGVYLCNLTVADLFYICSLPFWLQYVLQHDNWSHGDLSCQVCGILLYENIYISVGFLCCISVDRYLAVAHPFRFHQFRTLKAAVGVSVVIWAKELLTSIYFLMHEEVIEDENQHRVCFEHYPIQAWQRAINYYRFLVGFLFPICLLLASYQGILRAVRRSHGTQKSRKDQIQRLVLSTVVIFLACFLPYHVLLLVRSVWEASCDFAKGVFNAYHFSLLLTSFNCVADPVLYCFVSETTHRDLARLRGACLAFLTCSRTGRAREAYPLGAPEASGKSGAQGEEPELLTKLHPAFQTPNSPGSGGFPTGRLA

Assays:
[1] = variants of: B1; test: cAMP reporter score (Enrich2 score, wild type = 0); higher = more signal; HEK293T, FACS bins
[2] = variants of: B1; test: surface expression score (Enrich2 score, wild type = 0); higher = more signal; HEK293T, FACS bins

Variant: A281del
- cAMP reporter score ([1]; pH 5.5): -1.36
- cAMP reporter score ([1]; pH 6): -0.825
- cAMP reporter score ([1]; pH 6, modulator: ogerin): -1.1
- cAMP reporter score ([1]; pH 6.5, modulator: ogerin): -0.975
- surface expression score [2]: -3.3

Variant: D282_P283del
- cAMP reporter score ([1]; pH 5.5): -1.35
- cAMP reporter score ([1]; pH 6): -1.28
- cAMP reporter score ([1]; pH 6, modulator: ogerin): -1.26
- cAMP reporter score ([1]; pH 6.5, modulator: ogerin): -0.538
- surface expression score [2]: -2.07

Variant: D282_P283insGSG
- cAMP reporter score ([1]; pH 5.5): -1.13
- cAMP reporter score ([1]; pH 6): -0.785
- cAMP reporter score ([1]; pH 6, modulator: ogerin): -1.21
- cAMP reporter score ([1]; pH 6.5, modulator: ogerin): -1.39
- surface expression score [2]: -1.68

Variant: P283_V284insGS
- cAMP reporter score ([1]; pH 5.5): -0.704
- cAMP reporter score ([1]; pH 6): -1.1
- cAMP reporter score ([1]; pH 6, modulator: ogerin): -1.98
- cAMP reporter score ([1]; pH 6.5, modulator: ogerin): -0.993
- surface expression score [2]: -2.21

Variant: P283_V284insGSG
- cAMP reporter score ([1]; pH 5.5): -1.61
- cAMP reporter score ([1]; pH 6): -1.54
- cAMP reporter score ([1]; pH 6, modulator: ogerin): -1.37
- cAMP reporter score ([1]; pH 6.5, modulator: ogerin): -1.62
- surface expression score [2]: -2.24

Variant: V284_L285insGS
- cAMP reporter score ([1]; pH 5.5): -1
- cAMP reporter score ([1]; pH 6): 0.052
- cAMP reporter score ([1]; pH 6, modulator: ogerin): -1.46
- cAMP reporter score ([1]; pH 6.5, modulator: ogerin): -0.515
- surface expression score [2]: -1.38

Variant: V284_L285insGSG
- cAMP reporter score ([1]; pH 5.5): -0.565
- cAMP reporter score ([1]; pH 6): -1.01
- cAMP reporter score ([1]; pH 6, modulator: ogerin): -0.924
- cAMP reporter score ([1]; pH 6.5, modulator: ogerin): -0.129
- surface expression score [2]: -2.5

Variant: L285A
- cAMP reporter score ([1]; pH 5.5): -0.642
- cAMP reporter score ([1]; pH 6): -0.399
- cAMP reporter score ([1]; pH 6, modulator: ogerin): -1.24
- cAMP reporter score ([1]; pH 6.5, modulator: ogerin): -1.13
- surface expression score [2]: -2.31

Variant: L285C
- cAMP reporter score ([1]; pH 5.5): 0.919
- cAMP reporter score ([1]; pH 6): 0.946
- cAMP reporter score ([1]; pH 6, modulator: ogerin): 0.511
- cAMP reporter score ([1]; pH 6.5, modulator: ogerin): -0.028
- surface expression score [2]: -1.44

Variant: L285D
- cAMP reporter score ([1]; pH 5.5): -1.64
- cAMP reporter score ([1]; pH 6): 0.346
- cAMP reporter score ([1]; pH 6, modulator: ogerin): -0.964
- cAMP reporter score ([1]; pH 6.5, modulator: ogerin): 0.455
- surface expression score [2]: -2.95

Variant: L285E
- cAMP reporter score ([1]; pH 5.5): -1.15
- cAMP reporter score ([1]; pH 6): -0.045
- cAMP reporter score ([1]; pH 6, modulator: ogerin): -1.14
- cAMP reporter score ([1]; pH 6.5, modulator: ogerin): -0.693
- surface expression score [2]: -1.91

Variant: L285F
- cAMP reporter score ([1]; pH 5.5): 0.568
- cAMP reporter score ([1]; pH 6): 3.46
- cAMP reporter score ([1]; pH 6, modulator: ogerin): 0.675
- cAMP reporter score ([1]; pH 6.5, modulator: ogerin): 2

Variant: L285G
- cAMP reporter score ([1]; pH 5.5): -1.35
- cAMP reporter score ([1]; pH 6): -0.904
- cAMP reporter score ([1]; pH 6, modulator: ogerin): -0.317
- cAMP reporter score ([1]; pH 6.5, modulator: ogerin): -0.356
- surface expression score [2]: -2.21

Variant: L285H
- cAMP reporter score ([1]; pH 5.5): -0.022
- cAMP reporter score ([1]; pH 6): -0.953
- cAMP reporter score ([1]; pH 6, modulator: ogerin): -0.617
- cAMP reporter score ([1]; pH 6.5, modulator: ogerin): -2.11
- surface expression score [2]: -2.24

Variant: L285I
- cAMP reporter score ([1]; pH 5.5): 2.43
- cAMP reporter score ([1]; pH 6, modulator: ogerin): 2.15
- cAMP reporter score ([1]; pH 6.5, modulator: ogerin): 3.29
- surface expression score [2]: 0.321

Variant: L285K
- cAMP reporter score ([1]; pH 5.5): -1.26
- cAMP reporter score ([1]; pH 6): -1.35
- cAMP reporter score ([1]; pH 6, modulator: ogerin): -1.74
- cAMP reporter score ([1]; pH 6.5, modulator: ogerin): -0.9
- surface expression score [2]: -2.57

Variant: L285M
- cAMP reporter score ([1]; pH 5.5): 0.116
- cAMP reporter score ([1]; pH 6): -0.117
- cAMP reporter score ([1]; pH 6, modulator: ogerin): 0.393
- cAMP reporter score ([1]; pH 6.5, modulator: ogerin): 0.014
- surface expression score [2]: -0.074

Variant: L285N
- cAMP reporter score ([1]; pH 5.5): -1.46
- cAMP reporter score ([1]; pH 6): -1.03
- cAMP reporter score ([1]; pH 6, modulator: ogerin): -1.66
- cAMP reporter score ([1]; pH 6.5, modulator: ogerin): -0.546
- surface expression score [2]: -2.28

Variant: L285P
- cAMP reporter score ([1]; pH 5.5): -1.17
- cAMP reporter score ([1]; pH 6): -0.58
- cAMP reporter score ([1]; pH 6, modulator: ogerin): -1.43
- cAMP reporter score ([1]; pH 6.5, modulator: ogerin): -0.791
- surface expression score [2]: -1.27

Variant: L285Q
- cAMP reporter score ([1]; pH 5.5): -0.773
- cAMP reporter score ([1]; pH 6): -0.739
- cAMP reporter score ([1]; pH 6, modulator: ogerin): -0.978
- cAMP reporter score ([1]; pH 6.5, modulator: ogerin): -1.13
- surface expression score [2]: -2.06

Variant: L285R
- cAMP reporter score ([1]; pH 5.5): -0.988
- cAMP reporter score ([1]; pH 6): -0.344
- cAMP reporter score ([1]; pH 6, modulator: ogerin): -1.65
- cAMP reporter score ([1]; pH 6.5, modulator: ogerin): -1.01
- surface expression score [2]: -2.73

Variant: L285S
- cAMP reporter score ([1]; pH 5.5): -0.65
- cAMP reporter score ([1]; pH 6): -0.831
- cAMP reporter score ([1]; pH 6, modulator: ogerin): -1.58
- cAMP reporter score ([1]; pH 6.5, modulator: ogerin): -0.469
- surface expression score [2]: -2.42

Variant: L285T
- cAMP reporter score ([1]; pH 5.5): 0.621
- cAMP reporter score ([1]; pH 6): 0.481
- cAMP reporter score ([1]; pH 6, modulator: ogerin): 0.588
- cAMP reporter score ([1]; pH 6.5, modulator: ogerin): -1.07

Variant: L285V
- cAMP reporter score ([1]; pH 5.5): 0.77
- cAMP reporter score ([1]; pH 6, modulator: ogerin): 1.25
- cAMP reporter score ([1]; pH 6.5, modulator: ogerin): 1.49
- surface expression score [2]: -1.04

Variant: L285W
- cAMP reporter score ([1]; pH 5.5): -0.287
- cAMP reporter score ([1]; pH 6): -0.493
- cAMP reporter score ([1]; pH 6, modulator: ogerin): -0.159
- cAMP reporter score ([1]; pH 6.5, modulator: ogerin): -0.706
- surface expression score [2]: -1

Variant: L285Y
- cAMP reporter score ([1]; pH 5.5): -0.527
- cAMP reporter score ([1]; pH 6): -1.5
- cAMP reporter score ([1]; pH 6.5, modulator: ogerin): -0.723
- surface expression score [2]: -2.07

Variant: L285del
- cAMP reporter score ([1]; pH 5.5): -1.07
- cAMP reporter score ([1]; pH 6, modulator: ogerin): -0.849

Variant: Y286A
- cAMP reporter score ([1]; pH 5.5): -1.35
- cAMP reporter score ([1]; pH 6): -0.478
- cAMP reporter score ([1]; pH 6.5, modulator: ogerin): -1.43
- surface expression score [2]: -0.018

Variant: Y286C
- cAMP reporter score ([1]; pH 5.5): -1.36
- cAMP reporter score ([1]; pH 6): -0.952
- cAMP reporter score ([1]; pH 6, modulator: ogerin): -1.66
- cAMP reporter score ([1]; pH 6.5, modulator: ogerin): -1.1
- surface expression score [2]: 0.601

Variant: Y286D
- cAMP reporter score ([1]; pH 5.5): -1.39
- cAMP reporter score ([1]; pH 6): -0.664
- cAMP reporter score ([1]; pH 6, modulator: ogerin): -1.72
- cAMP reporter score ([1]; pH 6.5, modulator: ogerin): -0.875
- surface expression score [2]: -2.1

Variant: Y286E
- cAMP reporter score ([1]; pH 5.5): -1.19
- cAMP reporter score ([1]; pH 6): 0.011
- cAMP reporter score ([1]; pH 6, modulator: ogerin): -1.04
- cAMP reporter score ([1]; pH 6.5, modulator: ogerin): -1.15
- surface expression score [2]: -2.04

Variant: Y286F
- cAMP reporter score ([1]; pH 5.5): 0.462
- cAMP reporter score ([1]; pH 6): -0.469
- cAMP reporter score ([1]; pH 6, modulator: ogerin): 0.529
- cAMP reporter score ([1]; pH 6.5, modulator: ogerin): -0.676
- surface expression score [2]: 0.507
